Molecular target: T1, Human heat shock transcription factor 1 (Hsf1), wild type (human, UniProt Q00613 1-529)
T1 sequence: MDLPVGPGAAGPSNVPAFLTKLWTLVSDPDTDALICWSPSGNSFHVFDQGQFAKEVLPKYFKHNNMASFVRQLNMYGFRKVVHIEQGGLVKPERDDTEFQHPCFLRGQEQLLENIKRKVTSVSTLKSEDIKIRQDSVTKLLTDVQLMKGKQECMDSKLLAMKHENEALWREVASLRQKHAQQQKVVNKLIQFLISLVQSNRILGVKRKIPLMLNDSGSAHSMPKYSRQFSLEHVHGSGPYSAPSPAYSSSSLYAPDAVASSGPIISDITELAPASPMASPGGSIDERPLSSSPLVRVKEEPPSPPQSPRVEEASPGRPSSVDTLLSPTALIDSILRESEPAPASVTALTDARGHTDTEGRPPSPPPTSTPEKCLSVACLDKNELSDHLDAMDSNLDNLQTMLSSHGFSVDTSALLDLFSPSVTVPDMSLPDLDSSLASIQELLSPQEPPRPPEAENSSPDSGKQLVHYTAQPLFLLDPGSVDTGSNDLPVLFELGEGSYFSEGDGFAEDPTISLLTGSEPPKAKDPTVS
Assay: HDX-MS

B1: Human DnaJB1/Hdj1, wild type (natural protein)
chain: MGKDYYQTLGLARGASDEEIKRAYRRQALRYHPDKNKEPGAEEKFKEIAEAYDVLSDPRKREIFDRYGEEGLKGSGPSGGSGGGANGTSFSYTFHGDPHAMFAEFFGGRNPFDTFFGQRNGEEGMDIDDPFSGFPMGMGGFTNVNFGRSRSAQEPARKKQ[about 150 residues not written out]PERIPQTSRTVLEQVLPI
- binding result: binds

From article doi:10.1101/803361 (bioRxiv, 2019)
